Here are results for 95 compounds from article PMC6919601, “Identification of Plasmodium dipeptidyl aminopeptidase allosteric inhibitors by high throughput screening” (PLoS ONE, 2019).

Among all 110,000 compounds or so, about 230 (0.21%) showed an effect of 50% or more. Some of the results follow.
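Further: 30 min substrate incubation versus DMSO and 10 µM JCP410 controls.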

The target in the test is DPAP1 (Plasmodium falciparum, UniProt Q8IIJ9). As to the kind of experiment: primary screen, percent inhibition; read by cleavage of a fluorogenic dipeptide substrate; higher = more effect of the substance. The arrangement: species or system P. falciparum D10 trophozoite lysates; single well.
DPAP1, sequence (Q8IIJ9 whole entry, looked up): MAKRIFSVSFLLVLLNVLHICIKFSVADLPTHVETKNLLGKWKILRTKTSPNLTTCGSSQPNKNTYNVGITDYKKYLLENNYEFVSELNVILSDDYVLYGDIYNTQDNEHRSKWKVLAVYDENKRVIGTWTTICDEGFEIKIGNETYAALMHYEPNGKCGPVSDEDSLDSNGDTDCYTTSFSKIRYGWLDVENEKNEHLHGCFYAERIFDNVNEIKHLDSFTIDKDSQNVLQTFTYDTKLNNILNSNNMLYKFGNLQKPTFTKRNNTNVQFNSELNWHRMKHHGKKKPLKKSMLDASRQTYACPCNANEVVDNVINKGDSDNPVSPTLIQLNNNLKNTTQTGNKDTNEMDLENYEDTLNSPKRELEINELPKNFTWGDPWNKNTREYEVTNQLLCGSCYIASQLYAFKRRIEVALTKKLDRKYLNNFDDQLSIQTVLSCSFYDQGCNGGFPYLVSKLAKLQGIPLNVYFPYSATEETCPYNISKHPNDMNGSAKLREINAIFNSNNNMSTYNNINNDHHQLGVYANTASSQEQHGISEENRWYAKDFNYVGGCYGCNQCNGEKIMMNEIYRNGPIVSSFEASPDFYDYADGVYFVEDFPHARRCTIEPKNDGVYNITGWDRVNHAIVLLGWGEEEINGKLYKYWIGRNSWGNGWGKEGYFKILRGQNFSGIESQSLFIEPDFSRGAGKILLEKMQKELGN
For `O=S(=O)(CC1CC1(Cl)Cl)c1nc[nH]n1` (centres unmarked), the “% Inhibition @ 10 uM” value is -0.0626%. The same measure for `CCCC[C@H](NC(=O)[C@H](CS(=O)(=O)Cc1ccccc1)NC(=O)N1CCOCC1)C(=O)CC(=O)OCC`: 1.52%; for `CCS(=O)(=O)c1c(S(=O)(=O)CC)c2ccccn2c1C(N)=O`: -5.36%; for `Cc1ccc(-c2cc(C(=O)NCCN3CCOCC3)c3ccccc3n2)cc1C`: -3.43%.

`Cc1cc(C)c(S(=O)(=O)NCCC2CCCN2C)c(C)c1` (centres unmarked): the “% Inhibition @ 10 uM” value stood at 1.78%. The value for `CCC(C(=O)N1CCC(N2CCCCC2)CC1)n1nc(C)c2sc3ccccc3c2c1=O` (centres unmarked) was -4.09%. The same measure for `Nc1c(C(=O)Nc2ccccc2)sc2nc(-c3cccs3)ccc12`: 3.32%; for `CCS(=O)(=O)C1=NSC2=NC(=O)/C(=C\c3ccc(OCc4ccccc4)c(OC)c3)C(=N)N21`: -3.39%. With `Clc1cccc(CN2CCN(Cc3ccccc3Br)CC2)c1`, the “% Inhibition @ 10 uM” value is -1.1%. The value for `CC(C)C[C@H](NC(=O)OCc1ccccc1)C(=O)N[C@@H](CCc1ccccc1)C(=O)c1ccco1` was -0.778%; that for `CCCCC(=O)Nc1c(NC)c2ccccc2oc1=O` was -0.668%; that for `CCc1ccccc1-n1nnc(C(=O)OC)c1C(=O)OC` was -1.58%. The value for `CCc1cc2c(SCC(=O)O)ncnc2s1` was -0.294%; that for `Cc1cc(/C=C2/C(=N)N3C(=NC2=O)SN=C3S(C)(=O)=O)c(C)n1-c1ccc(F)cc1` was -5.27%; that for `CCCN1C(=O)c2[nH]nc(-c3ccccc3O)c2C1c1ccc(O)c(OCC)c1` (centres unmarked) was 2.02%. The value for `COc1ccc(-c2nc(CS(=O)CC(=O)NCc3cccnc3)c(C)o2)cc1` (centres unmarked) was 0.689%. Regarding `CCOC(=O)Nc1ccc2c(c1)N(C(=O)CCN(C)C)c1ccccc1CC2`, the “% Inhibition @ 10 uM” value was -0.736%. The value for `O=C(CSc1c2c(nc3ccc(Cl)cc13)CCCC2)N1CCN(C(=O)c2ccco2)CC1` was -6.89%. The value for `O=C(NCc1ccc2c(c1)OCO2)C1CCC(CNS(=O)(=O)c2cccc3nsnc23)CC1` (centres unmarked) was 2.93%. The value for `O=C1OC(c2ccccc2)=N/C1=C\c1ccccc1Cl` was 9.52%.

As to `O=S(=O)(Nc1ccccc1Br)c1ccccc1`, the “% Inhibition @ 10 uM” value was -1.86%. As to `Cc1nc2ccn(Cc3cccnc3)c(=O)c2cc1C(=O)N1CCN(c2ccccn2)CC1`, the “% Inhibition @ 10 uM” value is -8.32%. Take `CCCn1c(CCc2ccccc2)nnc1SCc1nc(-c2cccs2)no1`: the “% Inhibition @ 10 uM” value was -5.91%.

As for `CC[C@H](NC(=O)[C@H](CS(=O)(=O)Cc1ccccc1)OC(=O)N1CCOCC1)C(=O)C(=O)NCc1ccccc1`, the “% Inhibition @ 10 uM” value is reported as -1.61%.

For `Cc1ccccc1OCC(=O)Nc1cccc(Cl)c1`, the “% Inhibition @ 10 uM” value worked out at 5.66%. In the case of `COc1ccc2ccccc2c1C1C(C#N)=C(N)Oc2c1c(C)nn2-c1ccccc1` (centres unmarked), the “% Inhibition @ 10 uM” value is 0.746%. The same measure for `COc1ccc(C(=O)Nc2ccc(S(=O)(=O)Nc3nccc(C)n3)cc2)cc1OC`: -1.44%; for `Cc1ccccc1OC(C)C(=O)Nc1cccc2ccccc12` (centres unmarked): 1.28%; for `CC(C)N1CC2=C(OC(N)=C(C#N)C2c2ccccc2F)/C(=C/c2ccccc2F)C1` (centres unmarked): -0.988%. The same measure for `CCC(=O)CC(c1ccc([N+](=O)[O-])cc1)c1c(OC)c2ccccc2oc1=O` (centres unmarked): 0.00178%. The same measure for `COc1cccc(OC)c1C(=O)N1CCN(Cc2c(OC)ccc3ccccc23)CC1`: 4.7%; for `O=C(c1nn2c(C(F)(F)F)cc(-c3cccs3)nc2c1Cl)N1CCCC1`: 3.32%.

On to `CCc1ccccc1-n1nnc(-c2nsc(NC(=O)c3ccc(OC)cc3)n2)c1C`, for which the “% Inhibition @ 10 uM” value is on record as -3.04%.

As for `CC(C)Cc1cc(-c2ccc([N+](=O)[O-])cc2)c(C#N)c(N)n1`, the “% Inhibition @ 10 uM” value is listed as -0.446%. The value for `O=C(Cn1ncc2c3ccccc3nc-2c1O)NCCc1ccc(Cl)cc1` was 1.43%; that for `CCc1nnc(-n2nc(C)cc2-c2ccccc2)n1N` was 4.67%. The same measure for `Cc1ccc(S(=O)(=O)C2(C(=O)N3CC=C(c4ccccc4)CC3)CC2)cc1`: 4.63%; for `Cc1cc(-c2ccccc2)nc(SCC(=O)O)n1`: 1.33%; for `CCC(C)NS(=O)(=O)c1ccc(NC(=O)C2CCCO2)cc1` (centres unmarked): -7.17%. The value for `CC1CCc2sc3ncnc(N4CCN(C)CC4)c3c2C1` (centres unmarked) was -4.51%; that for `O=S(=O)(c1ccc(C2CCCCC2)cc1)N(CCCN1CCOCC1)Cc1cccs1` was -1.34%. Regarding `CCN1CCCC1CNC(=O)C1CCN(c2nnc(C)c3c(C)n(-c4ccccc4)nc23)CC1` (centres unmarked), the “% Inhibition @ 10 uM” value was -5.35%. The same measure for `CC(C)(C)c1ccc(C(=O)NCCCN2CCOCC2)cc1`: 7%; for `CC1CC(C)CN(C(=O)C(NS(=O)(=O)c2ccc(Br)s2)c2ccccc2)C1` (centres unmarked): -3.87%; for `Cc1sc2ncnc(Nc3ccncc3)c2c1C`: -0.711%. The same measure for `CC1CCCCN1CCCNC(=O)C1CCN(c2nc3ccccc3o2)CC1` (centres unmarked): -3.12%; for `O=C(Cn1ncc2c3ccccc3n(Cc3ccccc3)c2c1=O)N1CCN(C(=O)c2ccco2)CC1`: 3.4%. The value for `Cc1ccc(Cn2cnc3c(nnn3-c3ccc(C)cc3)c2=O)cc1` was -5.79%. For the compound `CCOc1ccc(C2C3=C(CC(C)(C)CC3=O)N(CCCOC)C3=C2C(=O)CC(C)(C)C3)cc1OC`, the “% Inhibition @ 10 uM” value is given as -1.71%. For `CC(NC(=O)CN(c1cccc(F)c1)S(C)(=O)=O)c1ccccc1` (centres unmarked), the “% Inhibition @ 10 uM” value is -4.39%. Turning to `CCC(C)NS(=O)(=O)c1cc(C(=O)OC)n(C)c1` (centres unmarked), the “% Inhibition @ 10 uM” value was 0.655%. The same measure for `CC1CCCN(CCCNC(=O)C2c3ccccc3C(=O)N(C)C2c2cccs2)C1` (centres unmarked): -10%. The value for `COc1ccc(C2CC(C(F)(F)F)n3ncc(C(=O)NCCc4ccccc4)c3N2)cc1` (centres unmarked) was 4.19%; that for `CSc1ncc(C(=O)NCCCN2CCc3ccccc3C2)c(-c2ccccc2)n1` was -0.401%.

Consider `Cc1cccc(Nc2nc(-c3ccncc3)cs2)n1`, for which the “% Inhibition @ 10 uM” value came to 4.96%. The same measure for `COc1ccc(C(=O)Nc2nc3nc4c(c(O)n3n2)CCC4)cc1`: -1.31%. The same measure for `CCN(CC)S(=O)(=O)c1cc(C(=O)NC2CCCCC2)ccc1Br`: -4.58%. The value for `O=C1NC(/C=C/c2ccccc2)=C(c2ccccc2)C(c2ccccc2)N1` (centres unmarked) was 15.1%; that for `COc1ccc(OC)c(C2C3=C(O)CCCC3=NC(C)=C2C(=O)Nc2ccccc2C)c1` (centres unmarked) was -8.35%; that for `CCCNC(=O)C1=C(C)C(=O)OC12CCN(Cc1ccccc1)CC2` was -0.234%. For `COc1ccc2noc3c2c1C(=O)c1ccccc1-3`, the “% Inhibition @ 10 uM” value is given as -5.59%. Take `COc1ccc(-c2cc(OC(=O)c3ccco3)c3c(C)oc(C)c3c(=O)c2)cc1OC`: the “% Inhibition @ 10 uM” value is 2.21%. The same measure for `Cc1ccc2oc(=O)n(CCOc3ccc(Cl)cc3)c2c1`: 0.983%; for `CCN(CC)c1ccc(C2C3=C(O)CC(C)(C)CC3=NC(C)=C2C(=O)OC)cc1` (centres unmarked): -0.13%.

Take `CC1CCCC(C)N1CCCNC(=O)NCc1noc2ccccc12` (centres unmarked): the “% Inhibition @ 10 uM” value is given as -7.1%. For the compound `Cc1cc(C)c(S(=O)(=O)N2CCN(Cc3ccc4c(c3)OCO4)CC2)c(C)c1`, the “% Inhibition @ 10 uM” value is on record as -1.81%.

Regarding `O=C(O)c1c(CNCCc2ccccc2)c2ccccc2n1Cc1cccc(Cl)c1`, the “% Inhibition @ 10 uM” value is recorded as 3.54%. The value for `COc1ccc(Cl)cc1-n1c(S)nnc1Cn1ncc2ccccc2c1=O` was 0.627%; that for `C=CCOC(=O)CCC(=O)Nc1cccc2ccccc12` was -1.77%.

Consider `O=C(Nc1c(-c2ccccc2)nc2ccccn12)c1cccs1`, for which the “% Inhibition @ 10 uM” value is reported as -3.75%. The same measure for `O=C(O)c1ccccc1C(=O)NCCc1ccncc1`: -0.0735%; for `CCN1/C(=C/C(C)=O)Sc2ccccc21`: -3.81%. The same measure for `N#CC1=C(N)NC(SCc2ccccc2)=C(C#N)C12CCCCC2`: -2.47%; for `CCOC(=O)c1cnc2nc(-c3ccco3)nn2c1O`: -0.671%. The value for `COc1ccc(/C(C)=C2\SC(N3CCOCC3)=NC2=O)cc1` was -3.41%. On to `CCc1ccc(-c2[nH]nc3nc(-c4ccc(O)cc4)cc(C(=O)O)c23)cc1`, for which the “% Inhibition @ 10 uM” value is recorded as -2.07%. The value for `CC(C)C[C@H](NC(=O)c1coc(-c2ccccc2)n1)C(=O)NCC#N` was 3.1%; that for `COc1ccc2c(c1)c(C(=O)O)c(C)n2C` was 4.57%; that for `CCOC(=O)N1CCC(NC(=O)C2c3ccccc3C(=O)N(C)C2c2cn(C)c3ccccc23)CC1` (centres unmarked) was -3.87%. The same measure for `Cc1ccc(S(=O)(=O)CCc2nc3ccccc3o2)cc1`: 1.26%; for `Cc1ccc(S(=O)(=O)c2nnn3c2nc(NC2CCCCCC2)c2sccc23)cc1`: 1.68%; for `Cc1cccc(CS(=O)(=O)Cc2ccc(C(=O)NCCC3=CCCCC3)o2)c1`: 0.718%. The value for `COc1ccc(CNC(=O)C(Cc2ccccc2)NS(=O)(=O)c2cccc3nsnc23)cc1` (centres unmarked) was 2%; that for `COc1ccc(-c2csc3ncn(CC(=O)N4CCOCC4)c(=O)c23)cc1` was 8.62%. With `COc1ccc(-c2nc(SCC(=O)NC3CCCC3)c(-c3ccccc3)[nH]2)cc1`, the “% Inhibition @ 10 uM” value turned out to be 0.163%. In the case of `CCCCCCN1C(=O)C(O)=C(C(C)=O)C1c1cccc(F)c1` (centres unmarked), the “% Inhibition @ 10 uM” value amounted to 3.05%. The value for `CC(NC(=O)c1cccc(S(=O)(=O)N2CCOCC2)c1)C12CC3CC(CC(C3)C1)C2` (centres unmarked) was 0.661%; that for `CN1C(C(=O)NC(C)(C)CO)=CC(c2ccco2)=NS1(=O)=O` was 2.32%. The same measure for `Cc1ccc(OCC(=O)n2nc(C)c(Sc3ccccc3)c2C)cc1`: -0.169%; for `COc1cc(OC)c(OC)cc1/C=c1\sc2nnc(-c3ccc(Cl)cc3)n2c1=O`: -0.0735%. The value for `CC1CCc2c(sc3nnn(CC(=O)NC4CCCCC4)c(=O)c23)C1` (centres unmarked) was -1.18%; that for `C=CC/N=C1\S/C(=C/N(C)C)C(=O)N1S(=O)(=O)c1ccc(C)cc1` was -2.12%. As for `O=C(/C=C/c1ccco1)NC(=S)Nc1ccc(S(=O)(=O)Nc2nccs2)cc1`, the “% Inhibition @ 10 uM” value is on record as -1.42%.

With `CCOc1ccccc1N(CC(=O)NCc1cccnc1)S(C)(=O)=O`, the “% Inhibition @ 10 uM” value was determined as 0.528%. The value for `COc1ccc(S(=O)(=O)Nc2cccnc2)cc1` was -1.03%.
